# Results from PMC6212790.
# The other results are listed elsewhere or left out. At the low end of the ranking the order means little.
# Target: T1, GST-Rok (full length) (UniProt O34857)
# T1 sequence: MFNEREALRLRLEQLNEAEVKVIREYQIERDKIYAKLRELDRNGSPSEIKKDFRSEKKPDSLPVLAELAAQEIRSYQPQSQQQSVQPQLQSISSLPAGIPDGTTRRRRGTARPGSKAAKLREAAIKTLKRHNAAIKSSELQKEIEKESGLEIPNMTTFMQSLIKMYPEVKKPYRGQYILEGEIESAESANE
# Assay: protein binding microarray;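 also: rank score from −0.5 (least bound) to 0.5 (best bound)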
# Settings: Rok is a gene silencer of Bacillus subtilis; high values mean tight binding; most listed sequences are background and not binding sites; double strand, one strand shown
row,Sequence,binding signal [E-score]
1,GACCACCA,-0.264
2,ACCTGGTG,-0.368
3,AGGCCGCC,-0.353
4,ACAGTTTG,0.125
5,ACCGACAG,0.0868
6,GCGAGAGA,-0.245
7,CCCACGCA,-0.316
8,CTGTACCC,-0.0566
9,CTCGCAGC,-0.1
10,CCGTCACA,-0.181
11,TACGCTCA,-0.15
12,ACTAACAT,0.167
13,TCCTCGAA,-0.0637
14,CGTCGTAG,0.159
15,CAGAGCTG,-0.0573
16,ATCGTTCC,0.141
17,ATAGGGCC,-0.0878
18,GGAACCAA,0.00103
19,CCGTCACC,-0.267
20,ATCTTGGC,0.14
21,ATAGTCCA,0.00872
22,ATGAGCAA,0.12
23,TCACACAA,0.0655
24,AGACTTAA,-0.0719
25,GACTGTAC,0.0738

row,Sequence,binding signal [E-score]
1,ATGGGCCA,-0.14
2,ATTAGAGC,0.201
3,AAGCCGTC,-0.213
4,GTCACCCA,-0.248
5,GGTCCGAC,-0.131
6,ACACTAAA,0.174
7,ATACCTCG,0.174
8,GTTGTATA,0.348
9,GAACGTTA,0.0838
10,AACTCTAT,0.078
11,CACACTAG,0.147
12,GCTCAAGC,-0.291
13,GCCGCGAA,-0.302
14,ATGGCATC,-0.115
15,AGAAATGG,0.0767
16,GAAAAGAA,0.0486
17,AAGTCGCG,0.0517
18,ATTCTGGC,0.00683
19,CGTATTGC,0.109
20,GCCCAGCA,-0.176
21,GCGGAGAC,-0.093
22,ACATGTTG,-0.0393
23,ACTGGTCG,-0.264
24,CAGGTCCG,-0.16
25,GCGTAGAA,0.144

row,Sequence,binding signal [E-score]
1,TTAACGAA,0.272
2,CCTACAAC,0.207
3,ATGATAAT,0.286
4,CAGAATCA,0.0922
5,CAAACATC,-0.0255
6,CTATAGCC,-0.00463
7,TATTCAGA,-0.096
8,CCGCCCAA,-0.0841
9,CTGAACCA,-0.156
10,CCGCGATA,0.183
11,GCCAGAGC,-0.23
12,AACATGGA,0.113
13,AATTGTAC,0.341
14,AAGTCAGA,0.0934
15,CTTTAGAC,0.0252
16,CCCTCCGA,-0.323
17,ACTAGTTG,0.313
18,ATCAAGTA,-0.0272
19,AACCCGGT,-0.125
20,AGAAACTG,0.12
21,AAGCCAGG,-0.224
22,AATAGGAA,-0.0404
23,ATTATTCG,0.208
24,CCAGCTCC,-0.289
25,AACCACAC,0.158

row,Sequence,binding signal [E-score]
1,GGCTTGGA,-0.396
2,GGGGATTA,-0.193
3,ACCGATCA,0.0479
4,TCCTTCAA,-0.0819
5,ACGCGCCG,-0.208
6,CACATACG,0.0188
7,GCATGCGC,-0.207
8,CTTCGCAC,-0.121
9,CGTATATC,0.196
10,ATGGCCGG,-0.197
11,CACGTCCC,-0.192
12,ACTGATAC,0.229
13,CCCTAAAC,-0.103
14,CAACGCAA,0.146
15,ACTTAGGA,0.0169
16,ATAGACCA,0.0733
17,AGAGTCGC,-0.337
18,ATCCCGTC,-0.236
19,GCACGATA,0.0459
20,AAGGGGTA,-0.0589
21,ACACCTTA,0.0501
22,AGCCGAAG,-0.166
23,CAAGAATG,-0.116
24,AACAATCA,0.0905
25,CATACATC,0.158

row,Sequence,binding signal [E-score]
1,CGGCCTAC,-0.189
2,GCTTAACA,0.0509
3,CACTTCTC,0.0204
4,GTGATACA,0.221
5,ACGGAGTC,-0.19
6,ATGAACAG,0.112
7,ACAGAGAC,-0.158
8,AAAGTGGA,-0.07
9,CCTCGCTC,-0.0993
10,CGACGAAA,-0.0866
11,CCGTCCTA,-0.0489
12,CGCATCCG,-0.187
13,AGGTAAAT,0.317
14,CCCACAGA,0.0146
15,TACACAGA,0.27
16,CTGCTGTA,0.158
17,CTTCGAGC,-0.254
18,AGAGTTCA,-0.112
19,ACCTCATG,-0.12
20,TAATTTGA,0.229
21,ATTCTGAC,-0.0998
22,GGGCTCAA,-0.377
23,AGATCTCA,0.141
24,AACTAGAA,0.395
25,CCACAACA,0.0336

row,Sequence,binding signal [E-score]
1,CGGATTTC,-0.0204
2,GCGGACCA,-0.127
3,ACCCGCGG,-0.211
4,GGGAAAGA,-0.206
5,ATAGTAAC,0.366
6,CGACCGAA,-0.161
7,ACAACGGT,-0.218
8,CGATTTGC,0.0234
9,AAGAGCAA,-0.265
10,ACACAGCC,-0.0987
11,CTGATACC,0.135
12,CCTATTTA,0.276
13,GAGTAGTA,0.311
14,ACTACCTC,0.242
15,AGGACGAC,-0.139
16,ATACGTTC,0.136
17,AATTAGTG,0.322
18,AATAAAAC,0.0879
19,GGAGCGCA,-0.294
20,GTCCTAAC,-0.0146
21,CGACGACC,-0.199
22,GAGCAATC,-0.049
23,TATAGTCA,0.159
24,AAGGCCAC,-0.294
25,ACTAGTCG,0.292

row,Sequence,binding signal [E-score]
1,CAAAAAGC,-0.279
2,ATAGGTCC,0.123
3,CCGTACGG,-0.148
4,AGACTACT,0.209
5,CTGTGTTA,-0.0392
6,CCGTTCAC,-0.099
7,CTCCCGAA,-0.224
8,TACCGTGA,0.274
9,TAAGTAAA,0.283
10,TAGTCCGA,0.0277
11,CCGGAACA,-0.177
12,TATTTAAA,0.216
13,ACTTGAAG,-0.0519
14,ACTTGTCA,0.15
15,CATCAACG,0.0646
16,AGGTGTTA,0.146
17,GAACAACC,-0.0785
18,CAGTGTAC,0.00685
19,CTGGCTGC,-0.185
20,GGTTGAAA,-0.00635
21,AGGATTAT,-0.0493
22,GTCAACAA,0.0786
23,GATGTCAC,-0.0299
24,GCAACGGA,-0.00674
25,AGGGACAT,-0.276

row,Sequence,binding signal [E-score]
1,AGGTCGCC,-0.324
2,AGTTTGTA,0.391
3,ATTGCTTA,0.215
4,GACCTTCA,-0.123
5,GCCGGTCC,-0.305
6,ATAACTCC,0.0385
7,GACTATGA,0.0759
8,CACTCGCA,-0.137
9,CTGGCAAA,-0.152
10,ACCCCAGT,-0.265
11,CCTGGTAG,0.162
12,CGCACTCA,-0.0239
13,AACCATCT,0.0695
14,GCTGTTAC,0.0614
15,AGACCACC,-0.235
16,GTTCGAAC,0.112
17,CGTTCCTA,-0.184
18,AGGAGGAA,-0.159
19,GACTCAAA,-0.227
20,AAGGGGCC,-0.402
21,CATAGTCG,0.0771
22,AGCCTGGA,-0.235
23,CTCTCGAA,0.161
24,TACGTGAA,0.0262
25,GTAATAAA,0.256

row,Sequence,binding signal [E-score]
1,ATAGCCGA,0.0795
2,CGTGATGA,-0.14
3,AGGACTAT,0.0648
4,CGCACCTA,0.0485
5,CCTCGAAA,-0.0453
6,TACTCCAA,-0.0314
7,CGGCACCC,-0.399
8,CGAAGGAC,-0.156
9,CTTGGTTC,0.00681
10,CGTCCGAA,-0.163
11,CATTTCAA,0.129
12,AAGTCACA,0.0824
13,CAACCGAA,0.0943
14,AATCGATT,-0.114
15,GCGATTCA,-0.0567
16,CGAGGTCC,-0.0704
17,AAATTCTT,0.0789
18,CTAGAAGC,-0.238
19,CGGGCATA,-0.181
20,ATTTCTTA,0.221
21,ACATGCTC,0.0616
22,AACCCCTC,-0.277
23,TACCCAAA,0.0654
24,AACGACTG,-0.173
25,CCAGCCCC,-0.386

row,Sequence,binding signal [E-score]
1,CACTTAGC,-0.0109
2,CGGCACGA,-0.229
3,AGGCCATC,-0.213
4,GACATGCA,-0.116
5,CCTCCTCA,-0.243
6,GTGACCCA,-0.217
7,CGCTTGCC,-0.163
8,CTAGCATC,0.186
9,AATGCGAA,0.112
10,CGAGCCAG,-0.198
11,CAAGACCC,-0.25
12,AACCGTGT,-0.0422
13,TGCACAAA,0.0303
14,CTATCCAA,0.00992
15,TAGAAGCA,0.232
16,CGAATCAC,-0.0354
17,AGGTTAGC,-0.13
18,GTACCGAA,0.0505
19,GGAACGCA,-0.0595
20,TCACGAAA,-0.0736
21,CAAGATTA,0.188
22,AGTATTCC,-0.157
23,ATGCCAAA,-0.267
24,AGGTACAC,0.0344
25,ATTAAGCC,0.0565

row,Sequence,binding signal [E-score]
1,CGTCGCTA,0.116
2,GTGCTGCA,-0.0388
3,AAAGACTA,0.00582
4,GGCGGTGA,-0.209
5,GGTATGAA,0.2
6,AGTCGACC,-0.119
7,CATGATTC,-0.12
8,AATCAAGT,0.00372
9,AAGGTTAG,-0.0085
10,ACGGTCGA,-0.0327
11,AGGAGTAG,0.025
12,CATTGTTA,0.15
13,CCCTGCGC,-0.125
14,CCTTCTGA,-0.231
15,ATCCAAAA,-0.016
16,CGACTATC,-0.0436
17,AAGTCACC,-0.0643
18,TCTGTTCA,0.00908
19,GGCCACTA,-0.0902
20,CTTGTGCC,-0.142
21,CCAAACCA,-0.0489
22,AGACTCGG,-0.0684
23,AGCACTCC,-0.179
24,ATAGGGGC,-0.324
25,TTTATAAA,0.367

row,Sequence,binding signal [E-score]
1,ATGTGTGA,0.0497
2,AAATTTTG,0.27
3,ACGCACAG,-0.135
4,CGCTTAGC,-0.391
5,ACGCTATC,0.0688
6,GAGCAAAA,-0.162
7,CGCAAACG,-0.0776
8,ACGGGCTC,-0.119
9,GACGGGGA,-0.329
10,CCTCATTC,-0.294
11,AGAAGGGC,-0.22
12,GCCACCGA,-0.0465
13,TCAGTCAA,-0.163
14,GGGTGTTA,-0.0193
15,ATAGCTAG,0.273
16,GCAGGTAC,-0.00983
17,CGCAGGGC,-0.382
18,AAAGGGCG,-0.151
19,ATCGAGAT,0.0642
20,GTTATAAC,0.211
21,GCTGAGCA,0.0236
22,AGTAGAAC,0.267
23,AGATAAGA,0.0499
24,ACATCATG,0.0276
25,ACGGGATG,-0.166

row,Sequence,binding signal [E-score]
1,ACGCCAAC,-0.114
2,CCGCCGTC,-0.318
3,CTTACCCC,-0.287
4,ATGTTTTC,0.205
5,CCCCGATA,-0.136
6,CGTTTATA,0.171
7,GGACTGTA,0.116
8,ACCAGGGG,-0.271
9,GTACCCGA,0.0636
10,CCCGTCTC,-0.42
11,AGAAAGCT,0.19
12,ACAGGCTG,-0.101
13,CTTATCGC,0.0133
14,CACTTAAG,-0.218
15,AGATGAGC,0.0086
16,GATACCGC,0.0322
17,GCGCTAAA,0.0543
18,CGACTGAC,0.00526
19,ATAGGGCA,-0.0627
20,GAAATCAC,0.0294
21,CGGGGCTA,-0.239
22,AGTTTCTC,0.274
23,ATGTGTCC,0.00991
24,GGAAAACC,-0.181
25,GATCGCAA,0.0539

row,Sequence,binding signal [E-score]
1,GCACCTAC,0.0861
2,CAAATCAC,0.144
3,AGTAACGG,0.256
4,ACAGCTCG,-0.0502
5,TGCCCACA,-0.087
6,GCTACTAC,0.198
7,CGCGTAAA,0.16
8,AACTAGGC,0.118
9,GGAGAGAA,0.0161
10,CGCATATA,0.188
11,CAGGTTGA,-0.17
12,AACAAGGG,-0.177
13,GGCTGAGA,-0.0944
14,AGGGACTC,-0.392
15,GAGTGACC,-0.201
16,GTTATAAA,0.171
17,ACACACCT,0.159
18,TAACAACA,-0.0399
19,GGCCCATA,-0.0355
